Measurements: the RNAGym collection of RNA variant scans (doi:10.1073/pnas.2313332121)
This sample is rich in variants without activity.

B1: TPR 5TU (parent)
chain: GGAUCUUCUCGAUCUAACAAAAAAGACAAAUCUGCCACAAAGCUUGAGAGCAUCUUCGGAUGCAGAGGCGGCAGCCUUCGGUGGCGCGAUAGCGCCAACGUUCUCAACUAUGACACGCAAAACGCGUGCUCCGUUGAAUGGAGUUUAUCAUG

Variants of: B1
Assay: polymerase ribozyme fitness, log enrichment relative to wild type (log ratio); higher = more active; in vitro selection for triplet polymerase activity
Summary of the method: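 For each subunit of a heterodimeric triplet polymerase ribozyme, a mutant library was built by PCR and transcribed, then taken through a single in vitro selection round in triplicate. Selection involved annealing to a biotinylated primer, the partner subunit and triplets, incubation frozen at −7 °C, gel excision of extended constructs, capture on streptavidin beads and RT-PCR. Genotypes were retained after Illumina sequencing of inputs and outputs only with ≥10 input reads and ≥1 read in each output. Fitness is defined as the logarithm of a genotype's enrichment relative to wild-type enrichment, using inverse-variance-weighted averages across replicates, with the logarithm taken to base 2.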

Polymerase ribozyme fitness (log ratio), ≤ -4.2:
GGAUCUUCUCGAUGUAACAAAAGAGACAAAUCUGCCACAAAGCUUGAGAGCAUUUUCGGAUGCCGAGGCGGUAGCCUUCGGUGGCGCGAUAGCCCCAACGUUCUCAACUAUGAGACGCAAAACGCGUGCUCCGUUGAAUGGAGUUUAGCAUG [C14G A23G C54U A64C C72U G94C C114G U148G]
GGAUCUUCUCGAUGUAACAAAAAAGCCAAAUCUGCCACAAAGCUUGAGAGCAUCUUCGGAUGCAGAGGCGGCAGCCUUAGGUGGCGCGAUAGCUACAACGUUCUCAACUAUGACACGCAAAACGCGUGCUCCGUUGAAUGGGGUUUAUCAUG [C14G A26C C79A G94U C95A A142G]
GGAUCUUCUCGAUGUAACAAAAUAGACAAAUCUGCCACAAAGCUUGAGAGCAUGUUCGGAUGCAGAUGCGGCAGCCUUCGGUGGCGCGAUAGCGCCAACGUUCUCAACUAUGACACGCAAAACGCGUGCUCCGUUGAAUGGUGUUUAUCAAG [C14G A23U C54G G67U A142U U151A]
GGAUCUUCUCGAUGUAACUAAAAAGACUAAUCUGCCACAAAGCUUGAGAGCAUCUUCGGAUACAGAGGCGGCAGCCUUCGGUGGCGCGAUAGAGCCAACGUUCUCAACUAUGACACGCAAAACGCGUGCUCCGUUAAAUGGAGUUUAUCAUG [C14G A19U A28U G62A C93A G136A]
GGAUCUUCUCGAUGUAACAAUAAAGACAAAUCUGCCACAAAGCUUGAGAGCAUAUUCGGAUGCAGAGGCGGCAGCCUUCGGUGGCGCGAUAGCGCCAACGUUCUCAACUAUGACACGCAAAACGCGUGCUCCGUUGAAUGGAGUUUAUCAUG [C14G A21U C54A]
GGAUCUUCUCGAUGUAACAAAAAAGCCAAAACUGCCACAAAGCUUGAGUGCAUCGUCGGAUGCAGAGGCGGCAGCCUUCGGUGGCGCGAUAGCGCCAACUUUCUCAACUAUGACACGCAAAACGCAUGCUCCGUUGAAUGGAGUUUAUCAUG [C14G A26C U31A A49U U55G G100U G126A]
GGAUCUUCUCGAUGUAACAAAAAGGACAAAUCUGCCACAAAGCUUGCGAGCAUCUUCGGAUGCAGAGGCGGCAGCCUUCGGUCGCGCGAUAGCGCCAACGUUGUCAACUAUGACAUGCAAAACGCGUGCUCCGUUGAAUGGAGUUUAUCAUG [C14G A24G A47C G83C C103G C116U]
GGAUCUUCUCGAUGUAACAAACAAGACAAAUCUGCCACAAAGCUUGAGAGCAUAUUCGAAUGCAGAGGCGGCAGCGUUCGGUGGCGCGAUAGCGCCAACGUUCUCAACUAUGACAGGCAAAACGCGUGCUCCGGUGAAUGGAGUUUAUCAUG [C14G A22C C54A G59A C76G C116G U134G]
GGAUCUUCUCGAUGUAACAAAAAUGCCAAAUCUGCGACAAAGCUUGAGAGCAUGUUCGGAGGCAGAGGCGGCAGCCUUCGGUGGCGCGAUAGCGCCAACGUUGUCGACUAUGACACGCAAAACGCGUGCUCCGUUGAAUGGGGUUUAUCAUG [C14G A24U A26C C36G C54G U61G C103G A106G A142G]
GGAUCUUCUCGAUGUAACAAAUAAGACAAAUCUGCCACAGAGCUUGAGAGCAUCUUCGGAUGCAGAGGCGGCAGCCUUCGGUGGCGCGAGAGAGCCAACGUUCUCAACUAUGACACGCAAAACGCGUGCUCCGUUGAAUGGAGUUUAACAUG [C14G A22U A40G U90G C93A U148A]
GGAUCUUCUCGAUGUAACAAGAAAGACAAAUCUACCCCAAAGCUUGAGACCAUCUUGGGCUGCGGAGGCGGCAGCCUUCGGUGGCGCGAUAGCGCCAACGUUCUCAACUAUGACACGCAAAACGCGUGCUCCGUUGAAUGGAGUUUAUCAUG [C14G A21G G34A A37C G50C C57G A60C A64G]
GGAUCUUCUCGAUGUAACAAAGAAGACAAAUCUGCCACACAGCUUGAGAGCAUCUUCGGAUGCAGAGGCGGCAGCCUCCGGUGGCGCGAUAGCGCUAACGUUCUCAACUAUGACACGCAAAACGCGUGCUCCGUUGAAUGUAGUUUAUCAUG [C14G A22G A40C U78C C96U G141U]
GGAUCUUCUCGAUGUAACAUAAAAGACAAAUCUGCCACAAGGCAUGAGAGCAUCUUCGGAUGCAGACGCGGCAGCCUUCGGUGGCGCGAUAGCGCCAACGUUCUCAACUUUGACACGCAAAACGCGUGCUCCGUUUAAUGGAGUUUAUCAUG [C14G A20U A41G U44A G67C A110U G136U]
GGAUCUUCUCGAUGUAACAAAAACGUCAAAUAUGACACAAAGCUUGAGAGCAUCUUCGGAUGCAGAGGCGGCAGCCUUCGGUGGCGCGAUAGCGCCAACGUUCUCAACUAUUACACGCAAAACGCGUGCUCCGUUGAAUGGAGUUUAUCAUG [C14G A24C A26U C32A C35A G112U]
GGAUCUUCUCGAUGUAACAAAAAGGACAAAUCUGCCACAAAGCUUGGGAGCGUCUUCGGAUGCAGAGGCGGCAGCCUACGGUGGCGCGAUAGCGCCAACGUUCUCAACUAUGACACGCAAAACGCGUGCUCCGUUGAAUGGAGUUUAUCAUG [C14G A24G A47G A52G U78A]
GGAUCUUCUCGAUGUAACAAAAAUGAGAAAUAUGCCACCAAGCUUGAGAGCAUCUUCGGAUGCAGAGGCGGCAGCCUUCGGUGGCGCGAUAGCGCCAACGUUCUCAACUAUGACACGCAAAACGCGUGCUCCGUUGAAUGGAGUUUAUCAUG [C14G A24U C27G C32A A39C]
GGAUCUUCUCGAUGUAACAAAAAAGGCAAAUCUGCCACAAAGCUUGCGAGCAUCUUCCGAUGCAGAGGCGGAAGCCUUCGGUGGCGCGAUAGCGCCAACGUUCUCAACUAUGACACGCAAAACGCGUGCUCCGUUGAAUGGAGUAUAUCAUG [C14G A26G A47C G58C C72A U145A]
GGAUCUUCUCGAUGUAACAAAAAGGACAAAACUGCCACAAAGCUUGAGCGCCUAUACGGAUGCAGAGGCGGCUGCCUUCGGUGGCGCGGUAGCGCCAAGGUUCUCACCUAUGACACGCAAAACGCGUGCUCCGUUGAAUGGAGUUUAUGAUG [C14G A24G U31A A49C A52C C54A U56A A73U A89G C99G A107C C149G]
GGAUCUUCUCGAUGUAACAAACAAGACAAAUUUGCCACAAAGCUUGAGAGCAUCUUCGGAUGCAGAGGCGGCAGCCUUCGGUGGUGCGAUAGCGCCAACGUUCUCAACUAUGACACGCAAAACGCGUGCUCCGUUGAAUGGGGUGUAUCAUG [C14G A22C C32U C85U A142G U145G]
